From article PMC6683012
Where a chain is given by its changes, count along the chain named. Results are given in words; binding and its absence hold for the method and conditions named. Binding seen in cells or lysates may run through a third protein. Some results given as binding are weak or reduced against the parent protein; the word gives no strength. For part of these data: Tags and fused reporters may be left off the sequences shown.

The chains behind the UniProt entries cited, without tags or fusion partners.
UniProt Q9LTB8: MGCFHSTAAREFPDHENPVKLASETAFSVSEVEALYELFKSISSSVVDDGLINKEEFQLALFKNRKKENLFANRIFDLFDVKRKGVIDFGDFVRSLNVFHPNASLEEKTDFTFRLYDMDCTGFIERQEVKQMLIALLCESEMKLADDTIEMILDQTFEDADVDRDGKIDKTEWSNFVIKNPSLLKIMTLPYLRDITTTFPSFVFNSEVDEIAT

Experiments:
Assay in all cases: split reporter; ratiometric BiFC (rBiFC 2in1 vectors), transient expression in Nicotiana benthamiana leaves for 2 days; YFP/RFP ratio from 10-30 cells; ratios greater than 1 taken as interaction
[1] = biological target: T1, cYFP-PIP2;4 (Arabidopsis) (UniProt Q9FF53)
T1 sequence: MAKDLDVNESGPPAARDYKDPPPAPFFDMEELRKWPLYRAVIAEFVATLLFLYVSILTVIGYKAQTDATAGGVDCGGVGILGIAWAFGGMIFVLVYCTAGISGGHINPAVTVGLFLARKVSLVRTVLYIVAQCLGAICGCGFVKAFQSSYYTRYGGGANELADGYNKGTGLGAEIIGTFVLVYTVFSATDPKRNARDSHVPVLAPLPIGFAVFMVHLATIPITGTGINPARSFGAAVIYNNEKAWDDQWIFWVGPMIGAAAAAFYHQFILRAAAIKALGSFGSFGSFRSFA

[2] = biological target: T2, SIRK1-cYFP (Arabidopsis) (UniProt Q0WR59)
T2 sequence: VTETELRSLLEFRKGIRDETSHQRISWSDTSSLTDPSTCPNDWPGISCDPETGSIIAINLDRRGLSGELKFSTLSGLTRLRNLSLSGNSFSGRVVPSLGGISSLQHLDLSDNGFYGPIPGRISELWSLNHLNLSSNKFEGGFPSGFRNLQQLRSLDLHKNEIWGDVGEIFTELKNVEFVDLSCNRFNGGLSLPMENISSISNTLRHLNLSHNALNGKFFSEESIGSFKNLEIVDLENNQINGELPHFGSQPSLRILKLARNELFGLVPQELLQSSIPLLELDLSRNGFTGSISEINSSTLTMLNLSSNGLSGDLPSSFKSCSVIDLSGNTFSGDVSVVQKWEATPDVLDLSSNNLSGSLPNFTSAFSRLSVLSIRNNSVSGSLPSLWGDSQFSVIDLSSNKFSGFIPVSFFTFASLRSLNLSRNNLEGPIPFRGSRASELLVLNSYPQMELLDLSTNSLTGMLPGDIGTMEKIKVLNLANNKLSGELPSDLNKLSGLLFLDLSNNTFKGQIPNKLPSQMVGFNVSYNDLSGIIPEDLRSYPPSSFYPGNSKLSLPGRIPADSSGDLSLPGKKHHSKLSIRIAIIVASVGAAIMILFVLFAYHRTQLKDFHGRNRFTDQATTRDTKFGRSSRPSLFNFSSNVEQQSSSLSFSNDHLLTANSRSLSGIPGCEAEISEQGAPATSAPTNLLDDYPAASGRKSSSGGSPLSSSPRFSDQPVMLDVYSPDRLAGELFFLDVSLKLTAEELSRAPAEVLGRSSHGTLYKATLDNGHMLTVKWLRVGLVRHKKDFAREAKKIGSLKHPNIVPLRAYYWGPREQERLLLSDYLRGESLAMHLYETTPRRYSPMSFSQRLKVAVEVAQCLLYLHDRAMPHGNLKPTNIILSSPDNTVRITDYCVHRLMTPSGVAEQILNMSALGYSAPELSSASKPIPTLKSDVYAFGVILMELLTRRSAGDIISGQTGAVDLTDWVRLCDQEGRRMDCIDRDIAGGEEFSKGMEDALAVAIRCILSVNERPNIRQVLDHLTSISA

[3] = biological target: Calcineurin B-like Calcium Sensor Protein CBL9 (Arabidopsis) (UniProt Q9LTB8)
[4] = biological target: T3, nYFP-PIP2;4 (Arabidopsis) (UniProt Q9FF53)
T3 sequence: T1 sequence

B1: QSK1S621DS626D-nYFP (receptor, UniProt Q9M8T0 24-627)
chain: SDLESDRRALLAVRNSVRGRPLLWNMSASSPCNWHGVHCDAGRVTALRLPGSGLFGSLPIGGIGNLTQLKTLSLRFNSLSGPIPSDFSNLVLLRYLYLQGNAFSGEIPSLLFTLPSIIRINLGENKFSGRIPDNVNSATRLVTLYLERNQLSGPIPEITLPLQQFNVSSNQLNGSIPSSLSSWPRTAFEGNTLCGKPLDTCEAESPNGGDAGGPNTPPEKKDSDKLSAGAIVGIVIGCVVGLLLLLLILFCLCRKRKKEENVPSRNVEAPVAAATSSAAIPKETVVVVPPAKATGSESGAVNKDLTFFVKSFGEFDLDGLLKASAEVLGKGTVGSSYKASFEHGLVVAVKRLRDVVVPEKEFRERLHVLGSMSHANLVTLIAYYFSRDEKLLVFEYMSKGSLSAILHGNKGNGRTPLNWETRAGIALGAARAISYLHSRDGTTSHGNIKSSNILLSDSYEAKVSDYGLAPIISSTSAPNRIDGYRAPEITDARKISQKADVYSFGVLILELLTGKSPTHQQLNEEGVDLPRWVQSVTEQQTPSDVLDPELTRYQPEGNENIIRLLKIGMSCTAQFPDSRPSMAEVTRLIEEVSHSSGDPNPVDD
Question: Which results are given for B1?
Answer: binding [1]: binds; binding [2]: binds

B2: QSK1S621AS626A-nYFP (receptor, UniProt Q9M8T0 24-627)
chain: B1 chain with D598A, D603A
Question: What does the source list for B2?
Answer: binding [1]: binds; binding [2]: binds

B3: CBL-interacting protein kinase CIPK23 (protein, UniProt Q93VD3 1-482)
chain: MASRTTPSRSTPSRSTPSGSSSGGRTRVGKYELGRTLGEGTFAKVKFARNVENGDNVAIKVIDKEKVLKNKMIAQIKREISTMKLIKHPNVIRMFEVMASKTKIYFVLEFVTGGELFDKISSNGRLKEDEARKYFQQLINAVDYCHSRGVYHRDLKPENLLLDANGALKVSDFGLSALPQQVREDGLLHTTCGTPNYVAPEVINNKGYDGAKADLWSCGVILFVLMAGYLPFEDSNLTSLYKKIFKAEFTCPPWFSASAKKLIKRILDPNPATRITFAEVIENEWFKKGYKAPKFENADVSLDDVDAIFDDSGESKNLVVERREEGLKTPVTMNAFELISTSQGLNLGSLFEKQMGLVKRKTRFTSKSSANEIVTKIEAAAAPMGFDVKTNNYKMKLTGEKSGRKGQLAVATEVFQVAPSLYMVEMRKSGGDTLEFHKFYKNLTTGLKDIVWKTIDEEKEEGTDGGGTNGAMANRTIAKQST
Question: B3 was tested. Which binding [3] did it give?
Answer: binds

B4: SIRK1-cYFP (receptor, UniProt Q0WR59 22-1048)
chain: T2 sequence
Question: How did the binding [4] turn out when B4 was run?
Answer: binds

B5: SIRK1S744D-cYFP (receptor, UniProt Q0WR59 22-1048)
chain: T2 sequence with S723D
Question: How did the binding [4] turn out when B5 was run?
Answer: binds

B6: SIRK1S744A-cYFP (receptor, UniProt Q0WR59 22-1048)
chain: T2 sequence with S723A
Question: With B6 as the binder, how does the binding [4] read?
Answer: no binding

B7: CIPK14 (protein, UniProt Q9LZW4 1-442)
chain: MVDSDPVEFPPENRRGQLFGKYEVGKLVGCGAFAKVYHGRSTATGQSVAIKVVSKQRLQKGGLNGNIQREIAIMHRLRHPSIVRLFEVLATKSKIFFVMEFAKGGELFAKVSKGRFCEDLSRRYFQQLISAVGYCHSRGIFHRDLKPENLLLDEKLDLKISDFGLSALTDQIRPDGLLHTLCGTPAYVAPEVLAKKGYDGAKIDIWSCGIILFVLNAGYLPFNDHNLMVMYRKIYKGEFRIPKWTSPDLRRLLTRLLDTNPQTRITIEEIIHDPWFKQGYDDRMSKFHLEDSDMKLPADETDSEMGARRMNAFDIISGSPGFNLSGLFGDARKYDRVERFVSAWTAERVVERLEEIVSAENLTVAKKETWGMKIEGQKGNFAMVVEINQLTDELVMIEVRKRQRAAASGRDLWTDTLRPFFVELVHESDQTDPEPTQVHTTS
Question: How did the binding [3] turn out when B7 was run?
Answer: no binding
